Data reported in article PMC7331637, “Phosphorylated peptide of G protein-coupled receptor induces dimerization in activated arrestin” (Scientific Reports, 2020).

Target: the molecule itself
Experiment: SEC; arrestin alone, without peptide; Superdex 200 16/600, 10 mM Hepes, 150 mM KCl, pH 7.5, 0.5 ml/min

B1: wild type visual arrestin-1 (natural protein)
chain: not shown
notes: bovine visual arrestin-1 (arr-1), wild type; also called arr-1; wild type arr-1; source: Saccharomyces cerevisiae F11 alpha (pYEX-BX vector), purified (SEC on Superdex 200)
Q: With B1 as the protein, how does the “stoichiometry N” value read?
A: 2
